From the supplement of paper PMC11417369 come the findings set out here.

± gives the standard deviation of the averaged measurements. This is one part of the list.

For this experiment, the system named is PfAP2-LT AP2 domain (GST-tagged). Nature of the experiment: gcPBM binding intensity (ln(normalized median fluorescence intensity)); higher = stronger DNA binding. The essentials:
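Binding of GST-tagged P. falciparum DNA-binding domains, expressed in E. coli and used at about 25 μg on average, was carried out for 1 h in 1× PBS containing 1% milk, 0.2 mg/ml BSA, 0.5% salmon testes DNA and 0.03% Triton X-100. The target was an Agilent 4 × 180k array of primer-extended double-stranded 36-bp intergenic genomic probes plus negative controls, read with Alexa488 anti-GST antibody at 488 nm. Binding intensity is the highest Masliner-normalised natural-log median intensity across replicate spots of either probe orientation.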
In the case of “GGATAGATAATAGGGGGTACAAATATACATACATAT [XGTACX_site5089]”, the “gcPBM binding intensity (ln)” value was determined as 9.38 ± 0.2.

Turning to “TTTTAATGAAAACACACACACACATATATATATATA [CACACA_site5295]”, the “gcPBM binding intensity (ln)” value stood at 9.93 ± 0.18.

On to “GAAAATAGAAAAAGCACACATATATTTTGGAATGTA [CACACA_site551]”, for which the “gcPBM binding intensity (ln)” value worked out at 8.89 ± 0.54.

“CTAAATATATAAAAAAGTACAAAATAAATAATAATT [XGTACX_site2442]”: the “gcPBM binding intensity (ln)” value is 8.79 ± 0.46.

Take “TATATATTATGACCACCACACACCTATACACATAAC [CACACA_site8773]”: the “gcPBM binding intensity (ln)” value worked out at 9.48 ± 0.24.

Take “TATTTCTGATTATTTTGTACACATTATATATAATGC [XGTACX_site6990]”: the “gcPBM binding intensity (ln)” value amounted to 8.93 ± 0.38.

As to “TATTATATAACAAAAAGTACTTATAAGAAATATATA [XGTACX_site5467]”, the “gcPBM binding intensity (ln)” value was 8.6 ± 0.46.

Consider “TAATAAGTACCTTTTGCATGTGGCACGCTTTTTTTT [TGCATGCA_site573]”, for which the “gcPBM binding intensity (ln)” value was 8.95 ± 0.47.

For “AAATGAATTATATAATATATATAAATAAATAAATAA [CACACA_negctrl_site359]”, the “gcPBM binding intensity (ln)” value turned out to be 8.62 ± 0.49.

For “TTTTTTTTTTTTACCTGTACATGTCAGCAAACTTTT [XGTACX_site1171]”, the “gcPBM binding intensity (ln)” value was 8.85 ± 0.61.

As to “GGAGAATAGTGGAAAACACACACGTTTGAGATATGG [CACACA_site1168]”, the “gcPBM binding intensity (ln)” value was 9.14 ± 0.42.

In the case of “CAAAAACGGAAGTGGTGTACCGATATTATATAAACA [XGTACX_site4962]”, the “gcPBM binding intensity (ln)” value stood at 9.02 ± 0.53.

For the sequence “AACATTATAAGACACACACACACATATATATATATA [CACACA_site8259]”, the “gcPBM binding intensity (ln)” value turned out to be 10.3 ± 0.3.

In the case of “ACTCTTAAAATGTATTGTACATAATTTTTACAAGGG [XGTACX_site6611]”, the “gcPBM binding intensity (ln)” value came out at 8.63 ± 0.4.

For the sequence “AGGTAGTTCTGTATCACACACATATATATATATATA [CACACA_site2214]”, the “gcPBM binding intensity (ln)” value came out at 9.825 ± 0.0071.

With “AAAAAAAATATATAAACACACATATTTATATACTCA [CACACA_site4984]”, the “gcPBM binding intensity (ln)” value stood at 8.72 ± 0.42.

Regarding “ACATATAATAAAAAATGTACACACATAAGAAAATTT [XGTACX_site6153]”, the “gcPBM binding intensity (ln)” value worked out at 9.16 ± 0.38.

“ACTATAAATATATAAATATATATATATATATATATA [GTGCAC_negctrl_site65]”: the “gcPBM binding intensity (ln)” value was 9.24 ± 0.38.

With “TTTCCATTATGATATAGTACATAAATATATGTAATA [XGTACX_site6992]”, the “gcPBM binding intensity (ln)” value was found to be 8.43 ± 0.36.

Turning to “TTGTGTGTATGTATACATATATATATTGAGACGAAT [TGCATGCA_negctrl_site382]”, the “gcPBM binding intensity (ln)” value was 9.22 ± 0.31.

Turning to “TATGTCAATTTTCATACATGCGCATAATCTTTATTT [TGCATGCA_site807]”, the “gcPBM binding intensity (ln)” value came to 8.98 ± 0.45.

Turning to “ATAAATAAGATACGTACACACATATACAAAATATAC [CACACA_site3661]”, the “gcPBM binding intensity (ln)” value is 9.27 ± 0.39.

In the case of “TAAATACACTGTAGCGCACACGGCCAAAAAAAAAAA [CACACA_site1818]”, the “gcPBM binding intensity (ln)” value was 9.21 ± 0.38.

“TACTATCTATACAATACACACAAAAAAAAAAAAATA [CACACA_site3981]”: the “gcPBM binding intensity (ln)” value is 8.95 ± 0.41.

In the case of “TTATTATCCTATATTTCTTTTCCTTCTTCAAAATTA [CACACA_negctrl_site1314]”, the “gcPBM binding intensity (ln)” value is 8.38 ± 0.48.

“TAATATCATTTATATTGTACTATAACAAAATCTATA [XGTACX_site7700]”: the “gcPBM binding intensity (ln)” value is 8.45 ± 0.48.

Consider “AATTGTAAATTGGGCACTTATAAAAATGAACAAATA [CACACA_negctrl_site1583]”, for which the “gcPBM binding intensity (ln)” value came to 8.81 ± 0.46.

“TCATAAAGAACAAAGTGTACCTATATATTACATACA [XGTACX_site7595]”: the “gcPBM binding intensity (ln)” value was 8.67 ± 0.4.

In the case of “TATAAAACCCTACTGTTTCTTCTTTATTGATATATT [TGCATGCA_negctrl_site285]”, the “gcPBM binding intensity (ln)” value amounted to 8.7 ± 0.53.

Regarding “AAAGTTTTTATACATACACACCTATAAATTAAGTGC [CACACA_site7198]”, the “gcPBM binding intensity (ln)” value worked out at 8.81 ± 0.32.

With “GAAAGAATAAAATAAACATGCAAATAAAACATAAAA [TGCATGCA_site471]”, the “gcPBM binding intensity (ln)” value was found to be 9.06 ± 0.52.

Regarding “TTTTATTTTTTCTCACGTACAAATATATAATTTTTT [XGTACX_site6952]”, the “gcPBM binding intensity (ln)” value was 8.57 ± 0.47.

For “ATGAATATAAAATATACACACTTATATATCGAATGA [CACACA_site6240]”, the “gcPBM binding intensity (ln)” value was determined as 8.84 ± 0.38.

On to “TACATATGGCACATATGTACACACGTATAGATAATA [XGTACX_site4123]”, for which the “gcPBM binding intensity (ln)” value turned out to be 9.1 ± 0.32.

In the case of “AATATATCCTATTCGAACAAAAATACATGCACATAT [CACACA_negctrl_site1058]”, the “gcPBM binding intensity (ln)” value worked out at 8.91 ± 0.35.

In the case of “GTATATATATATATATGTACATATATGTAGATATAT [XGTACX_site5431]”, the “gcPBM binding intensity (ln)” value stood at 9.16 ± 0.23.

For “ATATGTACGCAAGGTGCACACTGGTGCATTAAAAAA [CACACA_site1801]”, the “gcPBM binding intensity (ln)” value worked out at 9.26 ± 0.63.

“AAAAAAAAAATGTGCACACGCGTACACCCAAAAAAA [CACACA_site5149]”: the “gcPBM binding intensity (ln)” value was determined as 9.19 ± 0.44.

On to “TTTTTGTATCCTTCTTCTTTTTCCAGACTACATTAT [XGTACX_negctrl_site216]”, for which the “gcPBM binding intensity (ln)” value came to 8.87 ± 0.52.

Take “TATAAAAATAATATTACACACATGTAAAATGGCTGT [CACACA_site5755]”: the “gcPBM binding intensity (ln)” value was 9.02 ± 0.33.

As to “TTGTGGATTTTGTGCGCACACACATGCAAAAAGAAA [CACACA_site1147]”, the “gcPBM binding intensity (ln)” value worked out at 9.4 ± 0.43.

Consider “TCTCAGTAAATTAAATGTACATAAGGGAGGAACTAT [XGTACX_site8045]”, for which the “gcPBM binding intensity (ln)” value worked out at 8.84 ± 0.33.

As for “TAAATATATGCATATACACACAACAAAAAAATATAT [CACACA_site2341]”, the “gcPBM binding intensity (ln)” value worked out at 9.29 ± 0.49.

For “CACAGACATATATATACACACTTTTATTTAAATAAC [CACACA_site4962]”, the “gcPBM binding intensity (ln)” value is 8.94 ± 0.39.

For “AACATATAAATAAACTGTACATATATATATATATAT [XGTACX_site1056]”, the “gcPBM binding intensity (ln)” value was found to be 9.42 ± 0.3.

On to “AATATTACGTGTTTGGTATTTTTCGATGTTGGCAGG [XGTACX_negctrl_site59]”, for which the “gcPBM binding intensity (ln)” value amounted to 8.82 ± 0.53.

Turning to “ATATTATTTTAAAAAAGTACATTTTTAAGAATTCTT [XGTACX_site6630]”, the “gcPBM binding intensity (ln)” value was determined as 8.32 ± 0.4.

In the case of “ATAAAATTTATATAAGCACACAAATATATATTTATA [CACACA_site9083]”, the “gcPBM binding intensity (ln)” value is 8.69 ± 0.47.

As for “AATTGCATAATATATTCACACATTTTTAAGTGATAC [CACACA_site5679]”, the “gcPBM binding intensity (ln)” value came out at 8.71 ± 0.35.

On to “GTAAAGGCTATATATGTGCACATTTTTTTTTTTTTT [GTGCAC_site9925]”, for which the “gcPBM binding intensity (ln)” value worked out at 8.91 ± 0.45.

In the case of “TTATGGTTATACATATGTACATATATATATATATAT [XGTACX_site1494]”, the “gcPBM binding intensity (ln)” value was 9.47 ± 0.2.

As to “TATCATTATGTAGAAACACACATAAGCTTCGGTTCA [CACACA_site2766]”, the “gcPBM binding intensity (ln)” value came out at 8.79 ± 0.43.

“GGGGAAAAAAAAAAAGGAAAAAGAAAAAAAAAAAAA [GTGCAC_negctrl_site489]”: the “gcPBM binding intensity (ln)” value worked out at 8.32 ± 0.64.

Take “AAAAAAAAAAAAAAAAAAAAAAAAATATATATATAT [CACACA_negctrl_site436]”: the “gcPBM binding intensity (ln)” value was 9.25 ± 0.27.

Consider “GTTGTGTAATTCGTAACACACATAAAATATAAATAA [CACACA_site7799]”, for which the “gcPBM binding intensity (ln)” value turned out to be 9.11 ± 0.43.

On to “TTACTATATAATATGTGTACACAACATATAATATAT [XGTACX_site1383]”, for which the “gcPBM binding intensity (ln)” value was 8.84 ± 0.38.
